Measured values: PubChem BioAssay AID624296 (National Center for Advancing Translational Sciences (NCATS), 2012)
Among all 350,000 compounds or so, about 9,900 (2.8%) were called active. This list was built around the results that the source calls inconclusive (neither active nor inactive); the mix of calls is not that of the screen. The call rests on the fitted dose curve; in most records, active means well fitted activation curve with a large enough effect; inconclusive means small, poorly fitted or top-dose-only effect; inactive means no such curve, though single readings can be large or run the other way. No potency is given beside an inconclusive call; the fits are too rough.

Assay: A quantitative high throughput screen for small molecules that induce DNA re-replication in MCF 10a normal breast cells. Further: nearly all actives have a fitted effect of over 50% in size.
Details: MCF 10A DNA re-replication, Hoechst nuclear intensity, 48 h; series mostly up to 46.1 µM
Potency means the concentration at half of the fitted maximal effect; tags describe the fitted curve by direction and shape.

SMILES	Potency
Cc1ccc(NC(=O)COc2ccc(/C=N/NC(=O)CSCc3ccccc3)cc2)cc1	inactive
CCCc1cc(=O)[nH]c(=S)[nH]1	inconclusive [activator, single point]
O=C/C=C/c1c(-c2ccccc2)cc2oc3ccccc3cc1-2	active: 8.2 µM
COCCCn1c(=S)[nH]c2sc3c(c2c1=O)CCCS3	inconclusive [activator, partial curve, poor fit]
CC1CCN(S(=O)(=O)c2ccc(NC(=O)CN3C(=O)NC(C)(c4ccccc4)C3=O)cc2)CC1 (centres undefined)	inconclusive [activator, single point]
COc1ccc(/C=N/NC(=O)c2cccnc2)cc1COc1ccc([N+](=O)[O-])c(C)c1	active: 2.06 µM
O=C(NC1CCCC1)C(c1ccccn1)N(C(=O)c1csnn1)c1ccc(F)cc1 (centres undefined)	inactive
CCCCCC(O)(CCN1CCCCC1)c1ccc(OCC)cc1 (centres undefined)	inconclusive [activator, single point]
COc1cccc(CC(=O)OCc2csc(CC(=O)Nc3ccccc3C)n2)c1	inactive
O=C(Nc1ccc2c(c1)OCCO2)C(=O)c1c[nH]c2ccccc12	active: 9.2 µM
COc1cc(SC#N)ccc1N=Cc1c(C)[nH]n(-c2cccc3ccccc23)c1=O	inconclusive [activator, partial curve, poor fit]
CCOC(=O)c1nc(C)sc1-c1ccnn1S(=O)(=O)c1cccc(Cl)c1	inconclusive [activator, partial curve, poor fit]
CCOC(=O)[C@@H]1[C@H]2COc3ccccc3[C@H]2N2C(=O)N(c3ccc(Cl)cc3)C(=O)[C@]12C	inconclusive [activator, full curve, poor fit]
C=CCn1c(C)cc(C(=O)CSc2nc3ccccc3o2)c1C	active: 23.1 µM
CC(Cl)C(=O)Nc1cc(C(F)(F)F)ccc1N1CCOCC1 (centres undefined)	inactive
CCN(CC)CCCNc1nc2cc(OC)c(OC)cc2c2nc(-c3cccnc3)nn12	inconclusive [activator, partial curve]
OC(COC(c1ccccc1)c1ccccc1)CN1CCc2ccccc2C1 (centres undefined)	inconclusive [activator, single point]
CC(C)N1C(=O)S/C(=C\c2ccc(-c3ccc(Cl)c(C(=O)O)c3)o2)C1=O	inconclusive [activator, single point]
COC(=O)C1=C(N)Oc2cc(C)n(Cc3ccco3)c(=O)c2C1c1cccc(Cl)c1 (centres undefined)	inconclusive [activator, single point]
